Source: paper PMC4501709
Results are given in words; binding and its absence hold for the method and conditions named. Some entries that bind do so weakly or less than the wild type.

T1: Light-harvesting-like protein 3 isoform Lil3:1 (Lil3.1, At4g17600) (Arabidopsis thaliana (from the AGI locus code)) (UniProt Q9SYX1)
T1 sequence: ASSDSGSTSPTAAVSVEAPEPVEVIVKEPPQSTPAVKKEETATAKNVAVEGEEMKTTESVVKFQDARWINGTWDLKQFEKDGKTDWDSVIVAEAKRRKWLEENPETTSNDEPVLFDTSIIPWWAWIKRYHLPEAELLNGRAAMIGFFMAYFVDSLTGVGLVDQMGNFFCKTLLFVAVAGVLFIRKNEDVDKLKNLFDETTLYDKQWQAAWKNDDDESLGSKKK

T2: Light-harvesting-like protein 3 isoform Lil3:2 (Lil3.2, At5g47110) (Arabidopsis thaliana (from the AGI locus code)) (UniProt Q6NKS4)
T2 sequence: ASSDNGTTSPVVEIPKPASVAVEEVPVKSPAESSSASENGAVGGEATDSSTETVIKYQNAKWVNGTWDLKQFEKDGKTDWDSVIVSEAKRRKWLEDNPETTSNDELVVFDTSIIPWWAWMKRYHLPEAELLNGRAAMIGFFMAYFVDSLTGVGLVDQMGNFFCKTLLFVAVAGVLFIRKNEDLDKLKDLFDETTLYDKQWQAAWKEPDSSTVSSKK

T3: Geranylgeranyl reductase (GGR, ChlP, At1g74470, EC 1.3.1.83) (Arabidopsis thaliana (from the AGI locus code)) (UniProt Q9CA67)
T3 sequence: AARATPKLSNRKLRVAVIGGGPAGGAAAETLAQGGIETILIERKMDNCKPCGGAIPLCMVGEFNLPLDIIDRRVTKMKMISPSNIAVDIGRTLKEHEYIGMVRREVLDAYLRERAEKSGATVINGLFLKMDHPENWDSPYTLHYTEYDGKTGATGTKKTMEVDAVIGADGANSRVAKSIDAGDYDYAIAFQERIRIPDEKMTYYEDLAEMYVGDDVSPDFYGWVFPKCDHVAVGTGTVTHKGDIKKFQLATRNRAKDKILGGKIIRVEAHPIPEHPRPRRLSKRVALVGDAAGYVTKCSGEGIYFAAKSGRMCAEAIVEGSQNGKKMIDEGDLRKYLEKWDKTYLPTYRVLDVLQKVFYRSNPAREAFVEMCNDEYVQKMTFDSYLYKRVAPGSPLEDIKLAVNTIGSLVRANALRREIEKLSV

T4: Chlorophyll synthase (CHS, ChlG, At3g51820, EC 2.5.1.62) (Arabidopsis thaliana (from the AGI locus code)) (UniProt Q38833)
T4 sequence: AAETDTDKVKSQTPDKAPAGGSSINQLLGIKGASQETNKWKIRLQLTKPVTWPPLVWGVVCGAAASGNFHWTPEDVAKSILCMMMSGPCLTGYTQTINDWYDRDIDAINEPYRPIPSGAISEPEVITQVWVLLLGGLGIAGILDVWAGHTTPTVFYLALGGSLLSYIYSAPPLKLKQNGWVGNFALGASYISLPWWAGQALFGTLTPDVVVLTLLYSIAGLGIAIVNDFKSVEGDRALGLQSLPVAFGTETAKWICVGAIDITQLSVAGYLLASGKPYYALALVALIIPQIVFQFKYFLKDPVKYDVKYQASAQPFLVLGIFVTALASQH


Experiments:
[1] = target: T1, Light-harvesting-like protein 3 isoform Lil3:1 (Lil3.1, At4g17600) (Arabidopsis thaliana (from the AGI locus code)); test: two-hybrid; split ubiquitin system (DUALmembrane kit) in yeast NMY51; bait BTC-lil3:1 (Cub fusion), preys NubG fusions (PRN); growth on SD-WLAH supplied with 5 mM 3-aminotriazole; serial dilutions
[2] = target: T2, Light-harvesting-like protein 3 isoform Lil3:2 (Lil3.2, At5g47110) (Arabidopsis thaliana (from the AGI locus code)); test: two-hybrid; split ubiquitin system (DUALmembrane kit) in yeast NMY51; baits BTC-lil3:2, BTC-GGR or BTC-CHS (Cub fusions), preys NubG fusions (PRN); growth on selective medium SD-WLAH; serial dilutions
[3] = target: T3, Geranylgeranyl reductase (GGR, ChlP, At1g74470, EC 1.3.1.83) (Arabidopsis thaliana (from the AGI locus code)); test: as above
[4] = target: T4, Chlorophyll synthase (CHS, ChlG, At3g51820, EC 2.5.1.62) (Arabidopsis thaliana (from the AGI locus code)); test: as above

binding [1] | binding [2] | binding [3] | binding [4] | Binder
binds | binds | binds | no binding | Protochlorophyllide oxidoreductase C (PORC, At1g03630) (enzyme, UniProt O48741 68-401) QTVTATPPANEASPEQKKTERKGTAVITGASSGLGLATAKALADTGKWHVIMACRNFLKAEKAARSVGMSKEDYTVMHLDLASLESVKQFVENFRRTEQPLDVLVCNAAVYQPTAKEPSFTAEGFEISVGTNHLGHFLLSRLLLDDLKKSDYPSKRMIIVGSITGNTNTLAGNVPPKANLGDLRGLASGLNGQNSSMIDGGEFDGAKAYKDSKVCNMLTMQELHRRYHEETGVTFASLYPGCIATTGLFREHIPLFRLLFPPFQKYITKGYVSEEEAGKRLAQVVSDPSLGKSGVYWSWNNNSSSFENQLSKEASDAEKAKKLWEVSEKLVGLA
binds | binds | binds | no binding | Protochlorophyllide oxidoreductase A (PORA, At5g54190) (enzyme, UniProt Q42536 70-405) QAIATSTPSVTKSSLDRKKTLRKGNVVVTGASSGLGLATAKALAETGKWHVIMACRDFLKAERAAQSAGMPKDSYTVMHLDLASLDSVRQFVDNFRRAEMPLDVLVCNAAVYQPTANQPTFTAEGFELSVGINHLGHFLLSRLLIDDLKNSDYPSKRLIIVGSITGNTNTLAGNVPPKANLGDLRGLAGGLNGLNSSAMIDGGDFVGAKAYKDSKVCNMLTMQEFHRRFHEDTGITFASLYPGCIATTGLFREHIPLFRTLFPPFQKYITKGYVSESEAGKRLAQVVADPSLTKSGVYWSWNKTSASFENQLSQEASDVEKARRVWEVSEKLVGLA
binds | binds | binds | no binding | Protochlorophyllide oxidoreductase B (PORB, At4g27440) (enzyme, UniProt P21218 67-401) QTAATSSPTVTKSVDGKKTLRKGNVVVTGASSGLGLATAKALAETGKWNVIMACRDFLKAERAAKSVGMPKDSYTVMHLDLASLDSVRQFVDNFRRTETPLDVLVCNAAVYFPTAKEPTYSAEGFELSVATNHLGHFLLARLLLDDLKKSDYPSKRLIIVGSITGNTNTLAGNVPPKANLGDLRGLAGGLNGLNSSAMIDGGDFDGAKAYKDSKVCNMLTMQEFHRRFHEETGVTFASLYPGCIASTGLFREHIPLFRALFPPFQKYITKGYVSETESGKRLAQVVSDPSLTKSGVYWSWNNASASFENQLSEEASDVEKARKVWEISEKLVGLA
– | – | no binding | binds | Light-harvesting-like protein 3 isoform Lil3:2 (Lil3.2, At5g47110) (protein, UniProt Q6NKS4 43-258) ASSDNGTTSPVVEIPKPASVAVEEVPVKSPAESSSASENGAVGGEATDSSTETVIKYQNAKWVNGTWDLKQFEKDGKTDWDSVIVSEAKRRKWLEDNPETTSNDELVVFDTSIIPWWAWMKRYHLPEAELLNGRAAMIGFFMAYFVDSLTGVGLVDQMGNFFCKTLLFVAVAGVLFIRKNEDLDKLKDLFDETTLYDKQWQAAWKEPDSSTVSSKK

Second part, the binder before the results:

Binder | binding [1] | binding [2] | binding [3] | binding [4]
Chlorophyll synthase (CHS, ChlG, At3g51820, EC 2.5.1.62) (enzyme, UniProt Q38833 58-387) AAETDTDKVKSQTPDKAPAGGSSINQLLGIKGASQETNKWKIRLQLTKPVTWPPLVWGVVCGAAASGNFHWTPEDVAKSILCMMMSGPCLTGYTQTINDWYDRDIDAINEPYRPIPSGAISEPEVITQVWVLLLGGLGIAGILDVWAGHTTPTVFYLALGGSLLSYIYSAPPLKLKQNGWVGNFALGASYISLPWWAGQALFGTLTPDVVVLTLLYSIAGLGIAIVNDFKSVEGDRALGLQSLPVAFGTETAKWICVGAIDITQLSVAGYLLASGKPYYALALVALIIPQIVFQFKYFLKDPVKYDVKYQASAQPFLVLGIFVTALASQH | binds | binds | – | binds
Geranylgeranyl reductase (GGR, ChlP, At1g74470, EC 1.3.1.83) (enzyme, UniProt Q9CA67 44-467) AARATPKLSNRKLRVAVIGGGPAGGAAAETLAQGGIETILIERKMDNCKPCGGAIPLCMVGEFNLPLDIIDRRVTKMKMISPSNIAVDIGRTLKEHEYIGMVRREVLDAYLRERAEKSGATVINGLFLKMDHPENWDSPYTLHYTEYDGKTGATGTKKTMEVDAVIGADGANSRVAKSIDAGDYDYAIAFQERIRIPDEKMTYYEDLAEMYVGDDVSPDFYGWVFPKCDHVAVGTGTVTHKGDIKKFQLATRNRAKDKILGGKIIRVEAHPIPEHPRPRRLSKRVALVGDAAGYVTKCSGEGIYFAAKSGRMCAEAIVEGSQNGKKMIDEGDLRKYLEKWDKTYLPTYRVLDVLQKVFYRSNPAREAFVEMCNDEYVQKMTFDSYLYKRVAPGSPLEDIKLAVNTIGSLVRANALRREIEKLSV | no binding | no binding | binds | –
Light-harvesting-like protein 3 isoform Lil3:1 (Lil3.1, At4g17600) (protein, UniProt Q9SYX1 40-262) ASSDSGSTSPTAAVSVEAPEPVEVIVKEPPQSTPAVKKEETATAKNVAVEGEEMKTTESVVKFQDARWINGTWDLKQFEKDGKTDWDSVIVAEAKRRKWLEENPETTSNDEPVLFDTSIIPWWAWIKRYHLPEAELLNGRAAMIGFFMAYFVDSLTGVGLVDQMGNFFCKTLLFVAVAGVLFIRKNEDVDKLKNLFDETTLYDKQWQAAWKNDDDESLGSKKK | – | – | no binding | binds
